Results from patent US20080305997A1.

Biological target: CD4 on mouse CD4+ T cells (mouse), P06332
Experiment: cell-based or functional assay

CD4 on mouse CD4+ T cells (mouse), P06332, sequence (P06332 27-457): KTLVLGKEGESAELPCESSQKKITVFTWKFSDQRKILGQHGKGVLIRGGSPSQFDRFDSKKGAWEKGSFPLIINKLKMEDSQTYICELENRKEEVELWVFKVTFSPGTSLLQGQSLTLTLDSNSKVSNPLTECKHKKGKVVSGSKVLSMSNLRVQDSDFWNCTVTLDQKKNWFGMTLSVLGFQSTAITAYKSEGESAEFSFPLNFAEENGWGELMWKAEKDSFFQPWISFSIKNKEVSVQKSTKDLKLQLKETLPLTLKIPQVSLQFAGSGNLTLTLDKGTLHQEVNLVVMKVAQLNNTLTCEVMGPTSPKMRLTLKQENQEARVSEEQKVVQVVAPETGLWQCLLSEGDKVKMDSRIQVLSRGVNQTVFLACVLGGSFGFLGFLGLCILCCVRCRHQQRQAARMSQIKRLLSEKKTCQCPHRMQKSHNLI

B1: Salp15 (Ixodes scapularis salivary protein 15), recombinant 6x histidine-tagged, Q95WZ4 23-135 (ligand)
chain: ESGPTKADASTADKDTKKNNVQLRFPNYISNHQKLALKLLKICKDSKSSHNSLSSRSSDVINDKYVDFKNCTFLCKHGNDVNVTLNLPEDTPCGPNGQTCAEKNKCVGHIPGC
  immunosuppressive activity of Salp15 in T cells isolated from CD4-negative mice stimulated with anti-CD3/CD28: 33%
  immunosuppressive activity of Salp15 in control T cells stimulated with anti-CD3/CD28: 85%
